Experimental findings from PubChem BioAssay AID1508624 (National Center for Advancing Translational Sciences (NCATS), 2021) are described below.

The whole screen tested about 48,000 compounds, of which about 120 (0.25%) were called active. Another 4% or so got no clear call; they are omitted. The call rests on the fitted dose curve; in most records, active means well fitted activation curve with a large enough effect; inconclusive means small, poorly fitted or top-dose-only effect, or another doubt; inactive means no such curve, though single readings can be large or run the other way. This is one part of the list.
Potency means the concentration at half of the fitted maximal effect.

The assay is described as follows: Primary qHTS for Identification of Small Molecule Activators of Huntingtin-Antisense Promoter Activity. Further: nearly all actives have a fitted effect of over 55% in size. The following applies: HEK293 HTT-AS promoter firefly luciferase reporter, 24 h; series mostly up to 57.5 µM; activity change, positive = activation: at the top concentration. Put shortly: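 Quantitative HTS used concentration series of up to 57.5 uM final on HEK293 luciferase reporter cells, 24 h at 37 degrees C. Readout was Dual-Glo firefly luminescence.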
(qHTS replaces the single test concentration by a dilution series.)
Consider `COc1cccc(C(=O)N(Cc2cccc(F)c2)C2CCS(=O)(=O)C2)c1` (configuration not stated), for which the “activity change, positive = activation” value was inactive: -9.74%. Same read-out and setting: the result for `Cc1ccc2c(c1)N(CC(=O)Nc1ccccc1C(F)(F)F)C(=O)c1cccnc1O2` reads inactive: -25.1%. On the same count and under the same terms, the value for `Cc1c(Cl)cccc1NC(=O)c1oc2ccc(S(=O)(=O)N3CCCCCC3)cc2c1C` was inactive: 3.18%; that for `CCOC(=O)c1cc2c(=O)n3ccccc3nc2n(Cc2ccco2)c1=NC(=O)c1ccc(C(C)(C)C)cc1` was inactive: -2.18%. The same measure, in the same setting: the value for `O=C(Nc1cccc(F)c1)c1ccc2oc(=O)n(Cc3ccccc3)c2c1` was inactive: -37.2%. For the compound `COc1cccc(OC)c1C(=O)Nc1ccc(-c2nc3ncccc3o2)cc1`, the “activity change, positive = activation” value is inactive: -3.19%. For the compound `Cc1cccc(N(CC(=O)NCCc2ccccc2)S(=O)(=O)c2ccccc2)c1C`, the activity change, positive = activation was inactive: 26.2% [at 11.5 µM, percent change from vehicle, -100% = no light].

With `Cc1ccc(-c2csc(-c3c(N)c(C(=O)c4ccc5c(c4)OCO5)n4ccccc34)n2)cc1C`, the “activity change, positive = activation” value was inactive: 4.05%. The same measure, in the same setting: the result for `COc1ccc(CCNC(=O)c2cc3c(=O)n4cccc(C)c4nc3n2C)cc1` reads inactive: -3.9%. The same measure, in the same setting: the value for `CCC(CC)C(=O)Nc1nnc(S(=O)(=O)N(C)c2cc(C)cc(C)c2)s1` was inactive: -36.8%; that for `COc1ccc(C(=O)c2ccccc2)c(O)c1` was inactive: 12.7%; that for `COc1ccc(NC(=O)CC2Oc3ccc(C)cc3NC2=O)cc1Cl` (configuration not stated) was inactive: -26.6%. In the case of `COc1c(N2C[C@@H]3CCCN[C@@H]3C2)c(F)cc2c(=O)c(C(=O)O)cn(C3CC3)c12`, the “activity change, positive = activation” value is inactive: -5.9%. Same read-out and setting: the result for `Cc1cc(C)cc(-n2ccn(CC(=O)NCCc3ccccc3)c(=O)c2=O)c1` reads inactive: -1.54%.

Turning to `COc1cc2c(cc1OC)C(COc1ccc3c(C)cc(=O)oc3c1)N(C(=O)Cc1ccc(F)cc1)CC2` (configuration not stated), the “activity change, positive = activation” value was inactive: 0%.

With `Fc1ccccc1Nc1c2c(nc3ccccc13)CCC2`, the “activity change, positive = activation” value was inactive: -40.4%.

As to `COc1cccc2cc(C(=O)N3CCN(c4cc(C)ccc4C)CC3)c(=O)oc12`, the “activity change, positive = activation” value is inactive: -20.2%. Still for that read-out and setting: the value for `Cc1nc(SCC(=O)N2CCN(c3ccccc3)CC2)[nH]c(=O)c1C` was inactive: -7.58%. On the same count and under the same terms, the result for `CCc1ccccc1NC(=O)CN(C)S(=O)(=O)c1cccc2nsnc12` reads inactive: 4.87%. On the same count and under the same terms, the result for `CCN(CC)c1ccc(NC(=O)c2c(C)nn(-c3ccc(F)cc3)c2-n2cccc2)c(C)c1` reads inactive: -31.5%; that for `COc1ccc(OC)c(NC(=O)c2c(NCc3cccs3)sc3c2CCCCC3)c1`, inactive: -20.2%; that for `COc1ccc(-c2ccc(NS(=O)(=O)c3ccc(NC(C)=O)cc3)cc2)nn1`, inactive: 16.9%. `COc1cccc(CN(C(=O)COc2ccc(Cl)c(C)c2)C2CCS(=O)(=O)C2)c1` (configuration not stated): the “activity change, positive = activation” value is inactive: -18%. On the same count and under the same terms, the result for `COc1ccc(C(=O)CC(=O)c2ccc(C(C)(C)C)cc2)cc1` reads “inactive”; that for `Cc1ccc(C2CC(=O)n3nc(-c4ccc(Cl)cc4)nc3S2)cc1` (configuration not stated), inactive: -3.26%.

Turning to `Cc1ccc(Sc2ccc(N3CCC(C(=O)Nc4cc(C)cc(C)c4)CC3)nn2)cc1`, the “activity change, positive = activation” value is inactive: -12.1%.

As to `Cc1c(Cl)cccc1-n1ncc(C(=O)NCCN2CCN(C)CC2)c1C1CCN(C(=O)OC(C)(C)C)CC1`, the “activity change, positive = activation” value is inactive: 11%.

In the case of `O=C(Cn1c(=O)n(-c2ccccc2)c(=O)c2c3c(sc21)CCC3)c1ccc(F)cc1`, the “activity change, positive = activation” value is inactive: -21.6%.

Consider `O=C(NCc1ccccc1)c1ccc2c(c1)N(Cc1ccccc1F)C(=O)c1ccccc1S2=O` (configuration not stated), for which the “activity change, positive = activation” value is inactive: -29.7%. The same measure, in the same setting: the value for `Cc1ccc(CNC(=O)CCS(=O)(=O)c2cc3c4c(c2)CCN4C(=O)CC3)cc1` was inactive: -2.56%. Same read-out and setting: the result for `CCc1ccc(NC(=O)CSc2nc3c([nH]c4ccccc43)c(=O)n2-c2ccc(C)cc2)cc1` reads inactive: -36.5%. For `Cc1ccccc1C(=O)c1ccc(Nc2ccc(Br)cc2N)cc1Cl`, the “activity change, positive = activation” value was inactive: -16.7%. Still for that read-out and setting: the result for `O=C(Nc1ccc(Cl)cc1)c1cnn2c1NC(c1ccccc1)=CC2c1ccccc1` (configuration not stated) reads inactive: -50%; that for `CCN(CC)c1cc(C)c2cc(NC(=O)c3ccc(OC)c(OC)c3)ccc2n1`, inactive: -19.6%; that for `CCOC(=O)c1scc(-c2ccccc2)c1S(=O)(=O)N1CCN(c2ccc(Cl)cc2)CC1`, inactive: -18.8%.

For `Cc1ccc(NC(=O)c2ccc(NC(=O)N3CCSc4ncccc43)cc2)c(Cl)c1`, the “activity change, positive = activation” value is inactive: -31.7%. The same measure, in the same setting: the value for `COc1ccccc1C(=O)Nc1c(C(=O)Nc2cc(Cl)ccc2C)sc2nc(C)cc(C)c12` was inactive: -10.8%; that for `COc1cccc(N2CCN(C(=O)c3cnc4c(-c5ccccc5)c(C)nn4c3C)CC2)c1` was inactive: -14.3%; that for `Cc1ccccc1NC(=O)NCCc1c[nH]c2ccccc12` was inactive: -18.4%. Still for that read-out and setting: the result for `COc1ccc(-c2cc(C)no2)cc1S(=O)(=O)N1CCN(c2cccc(C)c2)C(C)C1` (configuration not stated) reads inactive: -56.7%; that for `O=C(Nc1ccccc1)c1cnc(N2CCCCC2)c2ccccc12`, inactive: -39.4%. Same read-out and setting: the value for `Cc1cc(C)cc(OCC(=O)Nc2nc(-c3ccc(F)cc3)ns2)c1` was inactive: 1.26%.

Regarding `Cc1cc(F)ccc1NC(=O)c1csc2c1CCC(C)C2` (configuration not stated), the Potency is active: 3.16 µM. Turning to `Cc1ccccc1NC(=O)CSc1c(C(C)C)cnc2c1c(=O)n(C)c(=O)n2C`, the “activity change, positive = activation” value is inactive: -18%. Same read-out and setting: the result for `COC(=O)c1cc(NS(=O)(=O)c2ccc3c(c2)OCCO3)ccc1Cl` reads inactive: -35.8%. `CCOc1ccccc1NC(=O)CSc1nc2ccccc2nc1N1CCOCC1`: the “activity change, positive = activation” value is inactive: -12.2%. Same read-out and setting: the result for `CCc1ccc(NC(=O)CSc2nc3nc(C)cc(C)n3n2)cc1` reads inactive: -15.9%.
